About 2,200 (0.71%) of roughly 310,000 compounds showed an effect of 50% or more. Effects have a minus sign here. Some of the results follow.

For the experiment, the target named is human ether-à-go-go-related gene (hERG) potassium channel (human, UniProt Q12809). The experiment can be described thus: primary screen, population patch clamp on CHO cells stably expressing hERG.
Sequence of human ether-à-go-go-related gene (hERG) potassium channel (Q12809 whole entry, looked up): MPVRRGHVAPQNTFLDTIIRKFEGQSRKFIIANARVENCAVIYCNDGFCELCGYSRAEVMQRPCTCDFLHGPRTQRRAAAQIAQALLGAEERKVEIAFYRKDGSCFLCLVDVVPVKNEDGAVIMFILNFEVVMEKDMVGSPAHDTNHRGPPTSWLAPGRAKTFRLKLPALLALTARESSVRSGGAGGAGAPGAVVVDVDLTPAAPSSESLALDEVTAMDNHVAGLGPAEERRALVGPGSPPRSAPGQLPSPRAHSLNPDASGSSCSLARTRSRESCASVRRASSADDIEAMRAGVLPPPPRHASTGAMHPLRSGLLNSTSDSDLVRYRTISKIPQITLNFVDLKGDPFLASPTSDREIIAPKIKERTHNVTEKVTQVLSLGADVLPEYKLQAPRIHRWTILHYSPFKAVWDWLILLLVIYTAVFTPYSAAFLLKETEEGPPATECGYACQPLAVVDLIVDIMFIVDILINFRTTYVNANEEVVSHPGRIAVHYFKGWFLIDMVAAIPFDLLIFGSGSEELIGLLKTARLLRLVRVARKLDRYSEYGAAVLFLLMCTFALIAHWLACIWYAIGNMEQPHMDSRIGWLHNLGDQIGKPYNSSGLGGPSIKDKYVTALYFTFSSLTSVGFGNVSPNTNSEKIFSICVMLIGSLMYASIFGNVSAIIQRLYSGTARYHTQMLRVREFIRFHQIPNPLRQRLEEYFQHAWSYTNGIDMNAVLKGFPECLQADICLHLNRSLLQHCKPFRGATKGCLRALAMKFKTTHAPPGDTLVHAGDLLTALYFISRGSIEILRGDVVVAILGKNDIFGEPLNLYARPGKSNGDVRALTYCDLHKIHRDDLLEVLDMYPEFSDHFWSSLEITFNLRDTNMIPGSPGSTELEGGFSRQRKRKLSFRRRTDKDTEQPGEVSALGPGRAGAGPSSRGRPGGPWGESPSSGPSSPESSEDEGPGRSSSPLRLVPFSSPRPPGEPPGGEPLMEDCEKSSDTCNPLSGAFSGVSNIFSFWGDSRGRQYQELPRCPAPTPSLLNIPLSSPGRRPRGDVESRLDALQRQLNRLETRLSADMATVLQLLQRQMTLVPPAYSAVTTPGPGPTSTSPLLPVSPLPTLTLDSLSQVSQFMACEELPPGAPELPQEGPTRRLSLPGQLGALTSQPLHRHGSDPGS
As for `O=C1CC(c2ccco2)Sc2nc3ccccc3n21` (stereo not drawn), the “hERG current change (%, negative = inhibition) at 1uM” value came to 8.33%. As for `COc1cc(C(=O)NCc2ccc(-c3nc4ccccc4s3)cc2)cc(OC)c1OC`, the figure is 13.7%; as for `COc1ccc2c(c1OC)C(=O)OC2C1c2c(cc3c(c2OC)OCO3)CCN1C.Cl` (stereo not drawn), 9.06%; as for `CC/C(O)=C1\C(=O)CC(c2ccccc2)CC1=NCCC(=O)O` (stereo not drawn), 16.4%. As for `COCCN(C(C)=O)c1nnc(-c2cnccn2)s1`, the figure is 7.47%; as for `CCN(CC(=O)Nc1cc(Cl)ccc1C)C(=O)COc1cccc2c1OC(C)(C)C2`, 0.28%. As for `Cc1cccc(C)c1OCCCCN1CCCCC1.O=C(O)C(=O)O`, the figure is 8.28%; as for `O=C(CC(=O)N/N=C/c1cccs1)NCc1ccccc1`, 10.4%. Consider `CCOC(=O)c1cc[n+](CC(=O)c2ccc(F)cc2)cc1.[Br-]`, for which the “hERG current change (%, negative = inhibition) at 1uM” value amounted to 3.52%. For `COC(=O)c1ccc(NC(=O)COc2cccc(-n3cnnn3)c2)cc1`, the “hERG current change (%, negative = inhibition) at 1uM” value was found to be 17.7%. On to `Nc1nc(SCc2ccccc2Cl)ns1`, for which the “hERG current change (%, negative = inhibition) at 1uM” value was determined as 8.18%. As for `CCC(=O)NCCCCCCNC(=O)CC`, the “hERG current change (%, negative = inhibition) at 1uM” value is on record as 9.57%. As for `O=S(=O)(Nc1nc2ccccc2nc1Cl)c1ccccc1C(F)(F)F`, the figure is 11.3%. As for `C=CCSc1nnc2c(n1)OC(c1cccnc1)Nc1ccccc1-2` (stereo not drawn), the figure is 2.84%. As for `CCOc1ccc(C(=O)NC2CCN(S(=O)(=O)c3ccccc3)CC2)cc1`, the figure is 11.4%. `Cn1c(SCC(=O)NC2CCCC2)nnc1-c1ccco1`: the “hERG current change (%, negative = inhibition) at 1uM” value amounted to 12.9%. As to `Nc1ccc(N2CCOCC2)c2nonc12`, the “hERG current change (%, negative = inhibition) at 1uM” value was 23.6%.

As for `CC1CCN(c2nnc(-c3cccs3)c3ccccc23)CC1`, the “hERG current change (%, negative = inhibition) at 1uM” value is -0.472%. Take `O=C(c1cccc2ccccc12)N1CCN(c2ccc([N+](=O)[O-])c(N3CCOCC3)c2)CC1`: the “hERG current change (%, negative = inhibition) at 1uM” value is on record as 0.0958%. In the case of `CCCCNC(=O)c1ccc(SCC(=O)N(CC)CC)c([N+](=O)[O-])c1`, the “hERG current change (%, negative = inhibition) at 1uM” value was 5.49%. As for `COC(=O)CC1(CC(=O)OC)C(=O)NC(=O)NC1=O`, the figure is 12.8%; as for `O=C(N/N=C/c1ccccn1)c1cccc(NC(=O)c2ccc(Cl)cc2)c1`, 7.76%; as for `Fc1ccc(CCNCc2ccc(Br)cc2)cc1`, -9.83%.

Take `CCC(=O)N1CCN(c2ccccc2NC(=O)c2ccc(-c3cccc([N+](=O)[O-])c3)o2)CC1`: the “hERG current change (%, negative = inhibition) at 1uM” value is on record as -3.2%. As for `CCCS(=O)(=O)c1nc(S(=O)(=O)c2ccc(Cl)cc2)c(N2CCC(O)CC2)s1`, the figure is 13.1%. As for `CCCOc1ccc(C(=O)CCNc2ccc(C)c(Cl)c2)cc1`, the “hERG current change (%, negative = inhibition) at 1uM” value was -1.97%. As for `Cc1cc(NS(=O)(=O)c2cccs2)no1`, the figure is 9.44%; as for `COc1ccc2c(c1)c(=O)oc1cc(OCC(=O)N3CCCC(C)C3)ccc12` (stereo not drawn), 3.3%; as for `COc1ccc(S(=O)(=O)N2CCOC2CNC(=O)C(=O)NCc2ccc(F)cc2)cc1OC` (stereo not drawn), 9.37%. As for `C=CCSc1[nH]c(=O)cc(C)c1C(N)=O`, the figure is 5.84%; as for `CC(=O)c1cc(CN2CCN(CC=C(C)C)C(CCO)C2)cs1` (stereo not drawn), 13.4%. As for `CCOC(=O)c1sc2nc(C)nc(SCC(N)=O)c2c1C`, the figure is 14.2%; as for `CCOC(=O)c1csc(NC(=O)CSc2nnnn2-c2cccc(OC)c2)n1`, 12.2%; as for `Cc1ccc2c(=O)cc(C(=O)NC3CCS(=O)(=O)C3)oc2c1` (stereo not drawn), 13.1%.

On to `O=C(Nc1cccc2c1[nH]c1ccccc12)C(F)(F)F`, for which the “hERG current change (%, negative = inhibition) at 1uM” value is given as 0.169%. As for `CCc1nnc(NC(=O)CSc2nnc(Cc3cc(=O)[nH]c(=O)[nH]3)n2-c2cccc(OC)c2)s1`, the figure is 4.49%.

Regarding `CCOc1ccccc1C(=O)Nc1ccc(NC(=O)c2ccccc2)cc1`, the “hERG current change (%, negative = inhibition) at 1uM” value is on record as 13.6%. As for `CC1CCN(C2(O)C(=O)Nc3ccc([N+](=O)[O-])cc32)CC1` (stereo not drawn), the figure is 0.801%; as for `COc1ccc(C2C(C(=O)N3CCN(c4ccccn4)CC3)CCC(=O)N2c2ccc(OC)cc2)cc1` (stereo not drawn), -0.548%. As for `COCCNC(=O)c1onc(CSc2cccc(C)c2)c1C(=O)O`, the figure is 10.3%. As for `O=C(CSc1nc2ccccc2c(=O)[nH]1)Nc1nc(-c2ccc(Br)cc2)cs1`, the figure is 5.56%. With `O=C(CN1CCN(Cc2ccc(F)cc2Cl)CC1)NCc1ccccc1`, the “hERG current change (%, negative = inhibition) at 1uM” value is on record as -5.2%. As for `Cc1c(C#N)c(N=CN(C)C)c(C(=O)c2ccc(Br)cc2)n1-c1ccc(Cl)cc1`, the figure is 14%.

Turning to `c1ccc2[nH]c(C3CC3)nc2c1`, the “hERG current change (%, negative = inhibition) at 1uM” value is given as 12%. As for `Cc1nnc2sc(-c3ccncc3)nn12`, the figure is 6.89%.

Values taken from publication PMC4336329 (PLoS ONE, 2015).
